This note sets out measurements from patent US20250049932A1, “CYTOTOXICITY TARGETING CHIMERAS FOR FOLATE RECEPTOR-EXPRESSING CELLS” (GLAXOSMITHKLINE INTELLECTUAL PROPERTY DEVELOPMENT LIMITED, priority 2022, published 2025).

The target in this assay is T1, FOLR (Homo sapiens, UniProt P15328).
T1 construct: Target cells: IGROV1 cells (typically 1000-20,000 cells per well); endogenous in cells; host or cells: IGROV1 cells
The assay is described as follows: Antibody dependent cellular cytotoxicity (ADCC) reporter assay. It counts as cell-based. As to conditions: IGROV1 target cells; anti-cotinine antibody (SEQ ID NO: 11/12, human IgG1 Fc S239D/I332E); Jurkat FcγRIIIa NFAT-luciferase reporter cells; about 12-18 hours; one value per experimental run; EC50 in molar (M); footnote: pEC50 < 5 = inactive. Here is the method:
An antibody dependent cellular cytotoxicity (ADCC) reporter assay was conducted using the following four assay components: (i) ARM compound of Formula (I) targeting FOLR (concentrations ranging from 1 pM to 10 μM); (ii) anti-cotinine antibody having a heavy chain sequence of SEQ ID NO: 11 and a light chain sequence of SEQ ID NO: 12 (rabbit variable region with human IgG1 Fc domain containing DE mutation (S239D/I332E)) (concentrations ranging from 0.01 μg/mL-200 μg/mL); (iii) Target cells: IGROV1 cells (typically 1000-20,000 cells per well); and (iv) Reporter cells—Jurkat cells engineered to express FcγRIIIa with a reporter gene luciferase under the control of the NFAT promoter (typically 3000-75,000 cells per well). Reagents were combined in final volume of 20 μL in 384-well tissue culture treated plate. […]
Luminescence signal was measured on a microplate reader capable of measuring luminescence and signal: background was calculated by dividing the signal of a test well by the signal obtained when no compound of formula (I) was included in the assay. […]
ARMs compounds of Formula (I) were tested for ADCC activity in the above assay in one or more experimental runs and the results are shown in Table 3 below. […] The pEC50 value is the negative log of the EC50 value, wherein the EC50 value is half maximal effective concentration measured in molar (M). […]
A general note: In a reporter assay the amount or activity of a reporter protein is the signal.

For part of its entries the source gives two or more results. Only these are listed. The source may hold further records. Results that share an entry appear to be repeats on other runs, samples or individuals.

T1 sequence (P15328 25-234 limits assumed): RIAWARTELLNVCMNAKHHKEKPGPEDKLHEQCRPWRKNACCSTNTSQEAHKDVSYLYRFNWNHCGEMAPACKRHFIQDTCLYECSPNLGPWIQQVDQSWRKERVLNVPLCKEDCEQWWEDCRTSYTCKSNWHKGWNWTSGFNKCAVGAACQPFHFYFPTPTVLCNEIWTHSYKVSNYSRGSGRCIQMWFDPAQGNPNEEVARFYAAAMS

The term EC50 denotes the concentration that produces a half-maximal response. Low values mean greater potency, high ones weaker potency. As for `CN1C(=O)C[C@H](C(=O)NCCOCCOCCOCCOCCOCCOCCOCCOCCOCCOCCOCCOCCC(=O)NCCNC(=O)CC[C@H](NC(=O)c2ccc(NCc3cnc4nc(N)[nH]c(=O)c4n3)cc2)C(=O)O)[C@H]1c1cccnc1` [Example 3], the 50% effective concentration (EC50) is 39.8 nM and 631 nM [one cell].
